Measurements published in PubChem BioAssay AID488969 (Vanderbilt High Throughput Screening Facility, 2010).
Over roughly 110,000 compounds, “z-score” has its median near -0.1; the highest 2% begin near 2. The list shows a part of the results. The source made the active and inactive calls.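 How the source made its calls: active means z-score in the third read window above 3 or below -3; inactive means the rest.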

target: Metabotropic glutamate receptor 8 (Rattus norvegicus) (UniProt P70579); assay: rat mGluR8 modulators via GIRK flux, primary screen, cell-based, thallium flux, HTS (AID 488969); conditions: HEK293 rat mGluR8, GIRK (G protein-gated inwardly rectifying potassium channel) thallium flux, FluoZin2; at 10 µM; stronger effect = higher value; submaximal glutamate (EC20) added with thallium
Chain of UniProt P70579 (P70579 whole entry, looked up): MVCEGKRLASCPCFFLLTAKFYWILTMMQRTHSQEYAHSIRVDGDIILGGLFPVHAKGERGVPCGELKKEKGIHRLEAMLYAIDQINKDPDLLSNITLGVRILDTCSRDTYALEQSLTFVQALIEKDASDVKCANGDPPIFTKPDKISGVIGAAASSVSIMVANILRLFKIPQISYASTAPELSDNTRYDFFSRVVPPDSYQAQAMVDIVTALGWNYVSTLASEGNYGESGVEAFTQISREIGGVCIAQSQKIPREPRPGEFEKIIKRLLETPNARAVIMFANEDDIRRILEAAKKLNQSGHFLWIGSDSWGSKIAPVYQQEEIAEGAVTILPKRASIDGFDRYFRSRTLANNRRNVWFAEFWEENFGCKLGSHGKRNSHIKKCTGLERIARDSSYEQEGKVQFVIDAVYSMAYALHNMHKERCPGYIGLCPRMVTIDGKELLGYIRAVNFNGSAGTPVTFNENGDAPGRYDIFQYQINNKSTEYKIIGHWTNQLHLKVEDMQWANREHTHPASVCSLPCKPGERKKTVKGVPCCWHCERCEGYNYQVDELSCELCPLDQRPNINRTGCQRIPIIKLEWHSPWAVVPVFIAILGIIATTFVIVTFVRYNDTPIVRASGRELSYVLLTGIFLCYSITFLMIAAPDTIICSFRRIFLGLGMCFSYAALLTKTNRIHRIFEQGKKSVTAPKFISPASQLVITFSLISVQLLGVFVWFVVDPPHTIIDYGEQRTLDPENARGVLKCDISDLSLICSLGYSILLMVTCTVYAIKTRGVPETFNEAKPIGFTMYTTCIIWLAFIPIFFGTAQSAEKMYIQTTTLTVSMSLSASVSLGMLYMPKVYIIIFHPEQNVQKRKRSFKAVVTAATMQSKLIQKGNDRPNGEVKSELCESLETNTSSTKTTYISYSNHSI

Point of comparison: `OCCNC(=S)NC1CCCCC1`, z-score -0.295. Against it:
- COC(=O)C(Cc1ccccc1)NC(=O)C12CC3CC(CC(C3)C1)C2 (configuration not stated) — lower, -0.512
- Cc1sc(N/N=C/c2ccco2)nc1-c1ccccc1 — higher, -0.188
- O=C(COC(=O)c1cn(-c2ccccc2)nc1-c1ccccc1)c1cccc([N+](=O)[O-])c1 — higher, -0.0786
- CCOC(=O)c1cc(C(C)=O)n2ccccc12 — higher, -0.131
- O=C(NCc1ccco1)c1cnn2c(C(F)(F)F)cc(-c3ccco3)nc12 — higher, 0.361
- Cc1cc(C)nc(NS(=O)(=O)c2ccc(N/C=C/C(=O)c3ccc(Cl)c(Cl)c3)cc2)n1 — higher, 0.0997
- O=C(O)CCCC(=O)Nc1cccc(-c2nc3ccccc3[nH]2)c1 — lower, -0.51
- CCN(Cc1ccccc1)C(=O)Cn1cnc2c1c(=O)n(C)c(=O)n2C — higher, -0.0176
- Cc1c(C)n(CCC#N)c2ccccc12 — higher, 0.668
- CCOC(=O)C(C)Oc1ccsc1C(=O)OC (configuration not stated) — higher, 0.992
- COC(=O)c1cccc(NC(=O)Cc2nc(-c3ccccc3)sc2-c2ccc(C)cc2)c1 — lower, -0.318
- CCCCN(CC)S(=O)(=O)c1ccc(C(=O)N=c2sc3cc(NC(C)=O)ccc3n2C)cc1 — higher, -0.0806
- Nc1nnc(SCC(=O)Nc2ccc(S(=O)(=O)N3CCOCC3)cc2)s1 — higher, 0.307
- O=C(Cc1cccs1)Nc1nnc(SCc2cccc3ccccc23)s1 — higher, -0.104
- CCOC(=O)c1sc(NC(=O)c2ccccc2)cc1C — lower, -0.333
- Cc1nn(CC(=O)Nc2ccccn2)c(C)c1[N+](=O)[O-] — higher, 0.599
- CCN(CC)S(=O)(=O)c1ccc(C2CNC(=O)C2)cc1 (configuration not stated) — higher, 0.261
- CCOCCc1nnc(NC(=O)c2cccs2)s1 — higher, -0.0424
- Cc1c(C(=O)Nc2ccccc2)oc2c1C(=O)CC(C)(C)C2 — higher, -0.229
- O=C(CN(Cc1ccccc1)S(=O)(=O)c1ccc(Br)cc1)NCc1ccco1 — lower, -0.557
- Fc1ccccc1CNC(=S)Nc1ccc(Cl)cc1 — higher, 2.23
- CCOC(=O)C1=C(Nc2cccc(Cl)c2)OCC1=O — lower, -0.814
- O=C1OC(N2CCN(C/C=C/c3ccccc3)CC2)c2ccccc21 (configuration not stated) — higher, -0.0152
- CCc1ccccc1NC(=S)NCc1ccc2c(c1)OCO2 — higher, -0.0875
- O=C(CN1NS(=O)(=O)c2ccccc2C1=O)Nc1ccccc1OC(F)F — higher, 0.0178
- CC(=O)c1cccc(NC(=S)NC(=O)CC(C)C)c1 — higher, -0.138
- CCCSCCCNC(=O)CC1Oc2ccccc2NC1=O (configuration not stated) — lower, -0.746
- C=CCn1c(=N)n(CC(=O)OCC)c2ccccc21 — higher, 0.534
- CCOC(=O)N1CCC(N2CC34C=CC(O3)C(C(=O)Nc3ccc(F)cc3)C4C2=O)CC1 (configuration not stated) — higher, 0.385
- Cc1ccc2c3c([nH]c2c1C)-c1nonc1CC3 — higher, -0.0985
- Cc1cc(C)n(CCc2nc(-c3ccc(C(C)(C)C)cc3)cs2)n1 — higher, -0.0594
- Cc1ccc(C(C)C)c(OCCNC(=S)Nc2cccc3ccccc23)c1 — higher, -0.0377
- COC(=O)CN(C)C1CC(=O)N(c2ccc(Cl)cc2)C1=O (configuration not stated) — lower, -0.379
- O=c1[nH]c2ccccc2n2c(-c3ccncc3)nnc12 — higher, -0.154
- N#Cc1c(NCCN)nc(-c2ccco2)c2c1CCCC2 — higher, 0.172
- S=C(c1ccccc1)N(c1ccccc1)c1ccccc1 — higher, -0.231
- Cc1nn(Cc2ccc(C(=O)Nc3ccc(C(=O)OC(C)C)cc3)o2)c(C)c1Cl — lower, -0.425
- Cc1cc(C)nc(SCC(=O)Nc2cc(C)on2)n1 — higher, 0.0308
- COc1ccccc1NC(=O)Cc1noc(CSc2cccc[n+]2[O-])n1 — higher, 0.154
- CN(C)CC#CCCCCCCC#CCN(C)C — higher, -0.162
- O=C(O)c1cn(C2CC2)c2cc(N3CCOCC3)c(F)cc2c1=O — higher, 0.473
- Cc1cc(NC(=O)Cc2cccs2)nn1CC(=O)NCc1ccco1 — higher, -0.178
- O=C(COC(=O)c1ccccc1Nc1ccc(SC(F)F)cc1)NC1CC1 — higher, -0.144
- CCCc1cc2c(=O)c(-c3ccc4c(c3)OCCO4)coc2cc1OS(C)(=O)=O — higher, -0.0601
- CC(=O)c1ccc(N2CCN(C(=S)Nc3ccccc3F)CC2)cc1 — higher, 1.44
- Fc1ccc(C(c2nnnn2C2CCCC2)N(Cc2ccco2)CC2CCCO2)cc1 (configuration not stated) — lower, -0.775
- NC(=O)CSc1nnc(CCc2nc3ccccc3[nH]2)n1-c1ccccc1 — higher, 0.0122
- Cc1ccc(C(=O)c2cc([N+](=O)[O-])ccc2N2CCOCC2)cc1 — higher, -0.268
- COc1ccc(C(=O)NC(=O)COC(=O)c2ccc3ncsc3c2)cc1 — higher, 0.16
- O=C(Nc1ccn(Cc2c(F)c(F)cc(F)c2F)n1)c1cccc(Cn2cc([N+](=O)[O-])cn2)c1 — lower, -0.771
- CCC1C(=O)N=C(SCC(=O)Nc2ccccc2)NC1=O (configuration not stated) — higher, 0.135
- CC1CCN(S(=O)(=O)c2ccc(S(=O)(=O)NCc3ccco3)cc2)CC1 — higher, 0.368
- Cc1cc(C)nc(-n2nc(C)cc2NC(=O)CNC(C)c2ccccc2)n1 (configuration not stated) — higher, 0.124
- CC1Cc2ccccc2N1C(=O)CN1CCC(n2nnc3cc(C(F)(F)F)ccc32)CC1 (configuration not stated) — lower, -0.668
- CCc1ccc2[nH]c(=O)c(C3C(C#N)=C(N)Oc4c3ccc3cccnc43)cc2c1 (configuration not stated) — lower, -0.379
- Cc1cc(C)nc(-n2nc(C)cc2NC(=O)CN2CCC(C)CC2)n1 — lower, -0.761
- Cc1ccc(-c2nc(N)c3c(-c4ccc(C)cc4)nn(C(C)(C)C)c3n2)cc1 — higher, 0.2
- CC1(C(=O)NC2CCCCCCC2)CCC(=O)N1Cc1cccs1 (configuration not stated) — higher, -0.269
- CCC(=O)Nc1cccc(NC(=O)c2ccc(Br)cc2)c1 — lower, -0.473
- Cc1c(C(=O)NC(=S)Nc2ccc3c4c(cccc24)CC3)cccc1[N+](=O)[O-] — higher, -0.205
- Brc1ccc(C2Nc3cccc4cccc(c34)N2)s1 — higher, 0.154
- Cc1nn(-c2ccccc2)c(C)c1NC(=O)COc1ccc(Cl)cc1Cl — higher, -0.279
- CCCCn1c(SCC(=O)Nc2nnc(C)s2)nc2c1c(=O)n(C)c(=O)n2C — higher, 0.257
- O=C(O)/C=C\C(=O)Nc1ccccc1C#Cc1ccccc1 — lower, -0.373
- Cc1c(NS(=O)(=O)c2ccc(Br)s2)c(=O)n(-c2ccccc2)n1C — higher, -0.25
- CC1(C)CCCN(C(=O)N2c3ccccc3Sc3ccccc32)C1 — higher, -0.275
- COC(=O)c1ccccc1NC(=O)/C=C/C(=O)O — higher, 0.196
- COc1cccc(CNC(=O)Nc2cccs2)c1 — higher, 1.23
- CCCn1c(CCC(=O)Nc2ccccc2Cc2ccccc2)nc2cc(S(=O)(=O)N3CCOCC3)ccc21 — lower, -0.371
- CNCCCc1[nH]nc(N)c1C#N — higher, 0.279
- COc1ccc(S(=O)(=O)NCc2ccc3c(c2)OCO3)cc1C(=O)O — higher, 0.0773
- CC(=O)Nc1cccc(NC(=O)COc2nncc3ccccc23)c1 — higher, -0.259
- O=[N+]([O-])c1ccc(NC(=S)N2CCN(c3ccc(F)cc3)CC2)cc1 — higher, -0.0841
- COC(=O)c1cc2ccsc2n1Cc1nc(-c2cccc(Cl)c2)oc1C — higher, -0.229
- O=C(/C=C/c1ccccc1)NCCC1=CCCCC1 — higher, -0.134
- CCOc1ccc2c(c1)C(C)=CC(C)(C)N2C(=O)Nc1ccccc1F — higher, -0.0976
- CCOc1ccc(NC(=O)CN(C)CC(=O)Nc2ccccc2SC)cc1OCC — lower, -0.61
- Cc1nnc(C)c2c(C)n(C(c3ccccc3)c3ccccc3)c(C)c12 — higher, 0.0312
- C=CCNCC#CCOc1ccc(OC)cc1 — higher, 0.521
- Cc1n[nH]c(C)c1S(=O)(=O)N1CCC(C(=O)O)CC1 — lower, -0.299
- CCN(CC)S(=O)(=O)c1ccc(S(=O)(=O)Nc2cc3c(cc2C(C)=O)OCO3)cc1 — higher, 1.3
- COc1ccccc1N1CCN(C(=O)C2c3ccccc3Oc3ccccc32)CC1 — higher, -0.083
- Cc1nc2ccccc2nc1N1CCCCC1 — lower, -0.522
- C=CCNC(=O)CC(C)C(CCCCC)C(=O)O (configuration not stated) — higher, -0.15
- CCOC(=O)Cn1cc(/C=N/NC(=O)c2ccc(C#N)cc2F)c2ccccc21 — higher, -0.218
- CCCOC(=O)c1ccc(Cl)c(NC(=O)c2ccc(-c3ccccc3)cc2)c1 — higher, -0.235
- O=C(CCc1ccccc1)Nc1nc2n(n1)C(c1ccccc1)CC(=O)N2 (configuration not stated) — higher, -0.144
- C=CCOc1cccc(C2/C(=C(\O)c3ccc(F)cc3)C(=O)C(=O)N2CCN(C)C)c1 (configuration not stated) — higher, -0.198
- Cc1ccc(O)c(Sc2cc(C)ccc2O)c1 — higher, 0.148
- CCn1c(SCc2ccccc2Cl)nc2nc3c(cc2c1=O)CCCC3 — higher, -0.0701
- O=C(c1ccco1)N1CCN(c2cccc(Cl)c2)CC1 — lower, -0.585
- O=C(c1c(Cl)nc2sccn12)N1CCN(c2cccc(Cl)c2)CC1 — higher, 0.238
- Cn1nnnc1SCC(=O)Nc1ccccc1-c1ccccc1 — higher, 0.101
- COc1ccccc1N1C(=O)C2C3C=CC(C3)C2C1=O (configuration not stated) — higher, 0.175
- O=C(Nc1cccnc1)/C(N=Nc1cccnc1)=C(\O)c1ccccc1 — lower, -0.3
- O=C(N/N=C/c1ccc2c(c1)OCO2)c1sc2cc(Cl)ccc2c1Cl — higher, -0.24
- CC(C)(C)C(=O)COC(=O)c1cc2ccccc2cc1O — higher, 0.0732
- CCN(CC)S(=O)(=O)c1ccc(/C=C/C(=O)OCC(=O)Nc2cccc3ccccc23)cc1 — higher, 0.142
- Cc1[nH]nc2c1C(c1ccc(F)cc1)C(C#N)=C(N)O2 (configuration not stated) — lower, -0.493
- CON(C)c1nc(Oc2ccc(=O)[nH]n2)nc(N(C)C)n1 — higher, 0.0683
- O=S(=O)(c1ccccc1)N1CCN(c2nc3ccccc3s2)CC1 — lower, -0.803
- Cn1c(NC(=O)c2ccc(Br)o2)cc(=O)n(C)c1=O — higher, 0.922
- Cc1sc2ncnc(Sc3nnnn3-c3ccc(Cl)cc3)c2c1C — lower, -0.841
- COc1cccc(CC(NC(C)=O)C(=O)NC2CCN(c3c(Cc4ccccc4)c(C)nc4ncnn34)CC2)c1OC (configuration not stated) — lower, -0.954
- COC(=O)c1c(NC(=S)Nc2cc(OC)c(Cl)cc2OC)sc2c1CCCCC2 — higher, 1.46
- O=C(c1cccc(NS(=O)(=O)c2cccc(F)c2)c1)N1CCN(c2ccccc2)CC1 — lower, -0.412
- CC(c1ccccc1C(O)c1ccccc1)N(C)C (configuration not stated) — higher, 0.034
- CCOC(=O)c1c(C)[nH]c(C)c1C(=O)CSc1nc2ccccc2n1CCC#N — higher, -0.206
- O=C(NCCOc1ccccc1F)c1ccccc1SCc1ccc(F)cc1 — lower, -0.926

For `CC1CCN(C(=S)NC(=O)c2ccccc2)CC1`, the z-score was active: 4.42.
For `O=C(Cn1c(=O)[nH]c2ccsc2c1=O)NC1CCCCCC1`, the z-score was active: 8.37.
